PubChem BioAssay AID1159614 (National Center for Advancing Translational Sciences (NCATS), 2016)
The whole screen tested about 45,000 compounds, of which about 65 (0.1%) were called active. Calls come from the whole dose curve; as a rule, active = well fitted activation curve with a large enough effect; inconclusive = small, poorly fitted or top-dose-only effect; inactive = no such curve, though single readings can be large or run the other way. Some of the results follow.

Molecular target: Galactocerebrosidase (Homo sapiens) (UniProt P54803)
Sequence of UniProt P54803 (P54803 whole entry, looked up): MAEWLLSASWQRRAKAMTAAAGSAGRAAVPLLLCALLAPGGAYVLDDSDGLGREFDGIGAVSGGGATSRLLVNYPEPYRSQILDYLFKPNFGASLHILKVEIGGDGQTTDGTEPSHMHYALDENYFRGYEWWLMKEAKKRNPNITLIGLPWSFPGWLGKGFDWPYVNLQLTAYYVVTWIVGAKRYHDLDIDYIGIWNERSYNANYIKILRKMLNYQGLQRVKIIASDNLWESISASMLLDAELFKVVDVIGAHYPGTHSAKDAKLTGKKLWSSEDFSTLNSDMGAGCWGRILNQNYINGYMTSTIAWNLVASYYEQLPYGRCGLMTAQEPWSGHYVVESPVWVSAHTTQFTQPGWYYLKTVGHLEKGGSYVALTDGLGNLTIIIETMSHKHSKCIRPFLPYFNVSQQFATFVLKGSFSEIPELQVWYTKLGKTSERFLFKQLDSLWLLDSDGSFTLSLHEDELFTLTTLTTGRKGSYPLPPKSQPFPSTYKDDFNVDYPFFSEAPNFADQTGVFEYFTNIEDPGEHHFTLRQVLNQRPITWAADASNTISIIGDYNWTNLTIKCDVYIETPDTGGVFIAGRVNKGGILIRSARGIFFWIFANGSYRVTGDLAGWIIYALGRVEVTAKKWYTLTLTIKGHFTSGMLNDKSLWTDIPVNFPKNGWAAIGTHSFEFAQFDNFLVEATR
Test: A Novel Cell-Based Assay to Identify Small Molecules for B -Galactocerebrosidase; note: 0% is about no effect; nearly all actives have a fitted effect of over 65% in size
Settings: 145M-Twi-hGALC-G270D cells (Twitcher mouse brain line with human GALC G270D), HMU-beta-Gal fluorescence, 48 h; series mostly up to 57.5 µM; activation: at the top concentration
Outline: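 Fluorescence readout: HMU-β-gal cleavage by mutant GALC (0.1 mM final, citrate/phosphate pH 5.2 with 1 mg/mL taurocholate), stopped with carbonate/bicarbonate plus Triton X-100. Cells: murine Twitcher 145M-Twi expressing human G270D GALC; qHTS for activators.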

activation, inactive:
COc1cc(C(=O)NC(c2ccc(Cl)cc2)c2cc(Cl)c3cccnc3c2O)cc(OC)c1OC (configuration not stated) -15.1%
CCc1cccc(C)c1NC(=O)CN1CCCN(Cc2ccccc2Cl)S1(=O)=O 3.15%
O=S(=O)(c1ccc(-n2cnnn2)cc1)N1CCN(c2cccc(Cl)c2)CC1 17.1%
Cc1c(C(=O)N2CCCCCC2)c(S(=O)(=O)N(Cc2ccccc2)C(C)(C)C)c(C)n1C -13.3%
COc1ccc(Nc2oc(/C=C/c3cccc(OC)c3)nc2C#N)cc1 2%
CCCn1c(=NC(=O)c2cc3ccccc3o2)c(C(=O)OCC)cc2c(=O)n3ccccc3nc21 -9.13%
CCCCN(CC)CCNC(=O)C1CCCN(S(=O)(=O)c2cccc3nsnc23)C1 (configuration not stated) -14.9%
O=C(Cn1ncc2ccsc2c1=O)N1CCN(c2ccccc2F)CC1 -6.07%
Cc1ccc(-n2c(=O)c3cccnc3n2CC(=O)Nc2cc(Cl)ccc2C)cc1 -0.918%
O=c1cc(-c2ccccc2)n2c(SCc3c(F)cccc3Cl)nnc2[nH]1 -19.5%
COc1ccc(C(CC(=O)NCc2ccccc2Cl)N2Cc3ccccc3C2=O)cc1OC (configuration not stated) -11.5%
CCCc1nn2c(=O)cc(COc3ccc(/C=C(\C#N)C(=O)Nc4ccccc4)cc3)nc2s1 -7.51%
CC(C)CC(=O)NC1(C(F)(F)F)C(=O)Nc2c1c(=O)[nH]c(=O)n2-c1ccccc1 (configuration not stated) -9.27%
Cc1ccc(NC(=O)C(=O)NCc2ccco2)cc1 4.53%
Cc1ccc(NC(=O)CN(C)S(=O)(=O)c2cnc[nH]2)cc1 -14.1%
COc1ccccc1OCC(=O)NCC(c1ccc(Cl)cc1)N1CCOCC1 (configuration not stated) -10.9%
Cc1ccc(NC(=O)Cn2c(=O)n(CCCCC(=O)NCc3ccccc3Cl)c(=O)c3ccccc32)cc1 -8.08%
Cc1ccc(C)c(CN2C(=O)c3ccccc3S(=O)c3ccc(C(=O)N4CCN(c5cccc(Cl)c5)CC4)cc32)c1 (configuration not stated) -4.03%
CCc1ccc(C2=NN(CCC(=O)NCCc3ccc(OC)c(OC)c3)C(=O)CC2)cc1 -9.21%
CCCOc1ccc(-c2nonc2NC(=O)c2cc(OC)c(OC)c(OC)c2)cc1OCCC -7.66%
CC(C)c1nn2c(=O)cc(COC(=O)c3cccc(NC(=O)c4cccs4)c3)nc2s1 -4.78%
CCc1ccccc1NC(=O)CCOc1ccccc1 -12.7%
Cc1ccc(N2CC(NC(=O)c3cc4ccccc4o3)CC2=O)cc1C (configuration not stated) -4.39%
COc1ccccc1CNS(=O)(=O)c1ccc(-c2cnc(C3CC3)o2)cc1 -5.19%
Cn1ccc2c(OCC(=O)NCc3ccccc3)cccc2c1=O -3.57%
COCCNC(=O)c1c[nH]c2ccc(S(=O)(=O)Nc3ccc(F)cc3F)cc2c1=O -13.2%
CCOC(=O)c1cnc2nc(NCc3cccc(Br)c3)[nH]n2c1=O 2.26%
COc1ccc(CSc2nc3ccncc3n2CC(=O)Nc2ccc(C)c(F)c2)cc1 -7.34%
CCc1ccccc1NC(=O)Cn1c(=O)n(-c2ccc(CC(=O)NCC3CCCO3)cc2)c(=O)c2ccccc21 (configuration not stated) 1.71%
COc1ccc(CNC(=O)c2ccc3c(c2)N(Cc2ccc(C)cc2)CCS3)cc1 -15.4%
Cc1ccccc1C(=O)Nc1ccc2nc(SCC(=O)N3CCc4ccccc43)sc2c1 -19%
COc1ccc2c(c1)Cc1sc(NC(=O)c3cccc(C)c3)nc1-2 -21.3%
Cc1ccc(CNC(=O)C2COc3ccccc3C2)cc1 (configuration not stated) 5.18%
COc1ccccc1CNC(=O)CC(c1ccc(C)cc1)N1Cc2ccccc2C1=O (configuration not stated) 10.3%
COc1ccc(CCNC(=O)CCS(=O)(=O)c2cc(Br)cc3c2N(C(C)=O)CC3)cc1OC -14.2%
Cc1cc(C)cc(-n2ccn(Cc3ccccc3C)c(=O)c2=O)c1 -0.0382%
Cc1cc(C)cc(NC(=O)C2CCCN2S(=O)(=O)c2ccc3c(c2)CCCC(=O)N3)c1 (configuration not stated) -8.89%
Cc1ccccc1NC(=O)c1sc2nc3n(c(=O)c2c1C)CCC3 -16.9%
Cc1ccc(OCC(=O)OC2=C(C(=O)c3ccccc3)N(C)S(=O)(=O)c3ccccc32)cc1 -24.2%
CCc1ccc(NS(=O)(=O)c2cc(-c3cnc(C4CC4)o3)ccc2C)cc1 14.2%
Cc1oc(-c2ccc(C(=O)NCCC(C)C)cc2)nc1CN1CCc2ccccc21 -24.4%
Clc1ccc(-c2nc3c4cnn(-c5ccccc5Br)c4ncn3n2)c(Cl)c1 -9.41%
COC(=O)CSc1nc2sc3c(c2c(=O)n1-c1ccccc1C)CC(C)(C)OC3 -15.5%
Cc1ccc(-n2nnc(-c3nc(-c4cccs4)no3)c2N)c(C)c1 -13.4%
O=S(=O)(Nc1cccc(C(F)(F)F)c1)c1ccc(-c2cnc(C3CC3)o2)cc1 -3.1%
COc1ccc(S(=O)(=O)c2c(C(=O)c3ccc(C)c(C)c3)cnc3ccc(F)cc23)cc1 -7.97%
CC(C)c1ccc(OCC(=O)Nc2c(C(=O)c3ccc(F)cc3)oc3ccccc23)cc1 -0.77%
COc1ccc(S(=O)(=O)NCc2cccn2Cc2cccc(C)c2)cc1 0.0761%
CCCCCSc1nc2sc3c(c2c(=O)n1-c1ccc(OC)cc1)CCN(C(C)=O)C3 -2.17%
COc1ccccc1NC(=O)CC(c1cc(OC)c(OC)c(OC)c1)N1Cc2ccccc2C1=O (configuration not stated) -15.8%
COc1ccccc1CNC(=O)Cn1ncn2c(cc3sccc32)c1=O -19%
Cc1ccc(Nc2c(-c3ccsc3)nc3c(C)cccn23)cc1 -50.1%
Cc1c(C)n(C)c2ccc(C(=O)NCc3cccc(F)c3)cc12 -7.06%
COc1cc2c(cc1NC(=O)COc1ccc(Cl)cc1Br)oc1ccccc12 -22.5%
CCOC(=O)CSc1nnc2n(-c3ccccc3)c(=O)c3c4c(sc3n12)CC(C(C)(C)C)CC4 (configuration not stated) -29.2%
COc1ccc(C(=O)Nc2ccc(-n3nncc3-c3ccccc3)cc2)cc1OC -12.1%
Cc1cccc(N2CCN(C(=O)Cn3ncc4c5ccccc5n(C)c4c3=O)CC2)c1C -9.12%
Cc1cc2oc(=O)cc(C)c2c2occ(-c3ccc(Cl)cc3)c12 -18.4%
COc1cc(OC)cc(-c2cc3nc(C)c(CCC(=O)NCc4ccc(Cl)cc4)c(C)n3n2)c1 -12.1%
CCc1ccccc1Nc1nc2ccccc2c2nncn12 -4.51%
CCc1ccc(S(=O)(=O)c2cn(Cc3ccccc3)c3cc(F)c(F)cc3c2=O)cc1 -16.8%
Cc1ccc(-n2nc(CO)c(C(=O)NCc3cccnc3)n2)cc1 -5.59%
COc1ccc(OC)c(CNC(=O)C2CCN(c3nc4ccccc4nc3C(F)(F)F)CC2)c1 -14.8%
Cc1ccc(C)n1-c1nnc(N2CCCC(C(=O)NCc3cccc(F)c3)C2)s1 (configuration not stated) 4.52%
Clc1ccc(C(c2ccccc2)c2c[nH]c3ccccc23)s1 (configuration not stated) -4.6%
Cc1ccc2[nH]c3c(=O)n(CC(=O)N4CCCCC4)ncc3c2c1 -5.41%
CCCCc1c(C)nc2c(-c3ccc(OC)cc3)c(C)[nH]n2c1=O -1.01%
Cn1c(CN2CCCCC2)nc2cc(NC(=O)c3ccccc3Cl)ccc21 0.439%
CCCCNC(=O)CCCn1c(=O)c2ccccc2n(Cc2cccc(Cl)c2)c1=O 0.803%
Cc1ccc(OCC(=O)Nc2ccc3nc(SCC(=O)N4CCOCC4)sc3c2)cc1 -6.55%
COc1ccccc1NC(=O)CSc1ncc2c(n1)-c1cc(Cl)ccc1N(Cc1ccccc1)S2(=O)=O 5.84%
CCOC(=O)c1cccc(NS(=O)(=O)c2ccc(-c3cnc(C4CC4)o3)cc2)c1 -14.1%
NC(=O)c1nc(Nc2ccccc2)sc1NC(=O)c1ccccc1Br -9.31%
COc1ccc2nc(NC(=O)c3nc(SC(C)C)ncc3Cl)sc2c1 -15.4%
Cc1ccc(C(C)OC(=O)C2(C)CCC(C(=O)O)C2(C)C)cc1 (configuration not stated) -8.77%
CCC(=O)N1CCc2cc(Br)cc(S(=O)(=O)CCC(=O)N3CCN(c4ccccc4F)CC3)c21 -33%
O=C(NC1CCCC1)c1cc(Nc2cccc(C(F)(F)F)c2)nc2ccccc12 -4.36%
Cc1ccc(S(=O)(=O)c2nc(S(C)(=O)=O)sc2N(C)Cc2ccccc2)cc1 -12.8%
Cc1cccc(NC(=O)C2CCC(CNS(=O)(=O)c3csc(C(N)=O)c3)CC2)c1C (configuration not stated) -3.64%
Cc1nc2c(c(C)c1CCC(=O)NCc1ccccc1)c(=O)n(C)c(=O)n2C 6.14%
COc1cc(NC(=O)CSc2nc3ccccc3nc2Cc2ccc(Cl)cc2)cc(OC)c1 -5.01%
COCCCNC(=O)CSc1nc2c(sc3ccccc32)c(=O)n1CCc1ccccc1 -6.04%
CC(C)(C)c1ccc(OCC(=O)Nc2ccc(S(=O)(=O)Nc3ncccn3)cc2)cc1 -13.5%
CCOC(=O)c1cccc(NC(=O)c2cc3c(-c4cccc(OC)c4)nn(C)c3s2)c1 -12.5%
Cc1nn(C)c2c1c(-c1ccccc1)cc(=O)n2CC(=O)Nc1ccccc1C(F)(F)F -5.89%
O=C(NCCCc1nc2ccccc2n1Cc1c(F)cccc1Cl)C1CCCCC1 -9.24%
O=C(COc1ccccc1Cl)Nc1nnc(S(=O)(=O)N2CCCCCC2)s1 -10.2%
Cc1nn2c(=O)cc(COc3ccc(/C=C(\C#N)C(=O)Nc4ccc(F)cc4)cc3)nc2s1 -4.16%
N#Cc1c(N)n(-c2cccc(Cl)c2)c2nc3ccccc3nc12 -5.31%
COc1cccc(Nc2cc(C)nc3nc(-c4ccc(Cl)cc4)nn23)c1 -12.2%
CCOc1ccc(CNc2nc3nc(C)c(Cc4ccccc4)c(=O)n3[nH]2)cc1 -5.7%
CCc1ccc(CNC(=O)C2Cc3cc(S(=O)(=O)N4CCCCCC4)ccc3N2C(C)=O)cc1 (configuration not stated) -1.1%
COc1ccc2c(c1)CC(C(=O)Nc1cc(Cl)ccc1C)CO2 (configuration not stated) -20.3%
COc1cc(NC(=O)Nc2cccc(-c3noc(C)n3)c2)cc(OC)c1OC -4.64%
Cc1cn2c(=O)cc(COc3ccc(Cl)cc3)nc2s1 -1.73%
Cc1ccc(Cl)cc1NC(=O)Cc1ccc(-n2c(C)nc3cccnc32)cc1 -11.1%
CCC(C)n1ncn(-c2ccc(N3CCN(c4ccc(OC[C@H]5CO[C@](Cn6cncn6)(c6ccc(Cl)cc6Cl)O5)cc4)CC3)cc2)c1=O (some centres not stated) -12.9%
